Experimental findings from the antibiotic and cytotoxicity screens of Wong et al. (2023) are described below.

Some of the results follow.

The subject of the test is HepG2. The test is described as follows: cytotoxicity call (relative viability < 0.9). To be noted: 10 µM.
With `C[C@@H]1CCCCO[C@@H](CN(C)Cc2ccncc2)[C@@H](C)CN([C@@H](C)CO)C(=O)c2cc(NC(=O)Nc3cccc4ccccc34)ccc2O1`, the cytotoxicity call is “inactive”.

Regarding `CO[C@H]1CN(C)C(=O)c2cc(NS(=O)(=O)CC(F)(F)F)ccc2OC[C@H](C)N(Cc2cccnc2)C[C@H]1C`, the cytotoxicity call was “inactive”.

For `CC12CCC(=O)C=C1CCC1C2C(O)CC2(C)C1CCC2(O)C(=O)COC(=O)CCC(=O)O` (stereo not given), the cytotoxicity call was “inactive”.

For the compound `C[C@@H]1CN([C@H](C)CO)S(=O)(=O)c2ccc(-c3ccc(C#N)cc3)cc2O[C@H]1CN(C)C(=O)CN(C)C`, the cytotoxicity call is “inactive”.

For `CC(C)CC#Cc1ccc2c(c1)O[C@H](CN(C)C(=O)C1CCOCC1)[C@H](C)CN([C@@H](C)CO)S2(=O)=O`, the cytotoxicity call was “inactive”.

On to `C[C@@H]1CN([C@@H](C)CO)C(=O)c2cc(NC(=O)CCCN(C)C)ccc2O[C@@H]1CN(C)C(=O)NC1CCCCC1`, for which the cytotoxicity call is “inactive”.

Consider `O=C(C[C@H]1C=C[C@H](NS(=O)(=O)c2ccc(F)cc2)[C@@H](CO)O1)NCc1ccc(Cl)c(Cl)c1`, for which the cytotoxicity call is “inactive”.

In the case of `C[C@@H]1CN([C@H](C)CO)C(=O)c2cc(C#CCN(C)C)cnc2O[C@@H]1CN(C)Cc1ccc2c(c1)OCO2`, the cytotoxicity call is “inactive”.

As to `COc1ccc(NC(=O)Nc2ccc3c(c2)C(=O)N([C@@H](C)CO)C[C@H](C)[C@H](CN(C)C(=O)Nc2ccccc2)OCCCC[C@@H](C)O3)cc1`, the cytotoxicity call is “inactive”.

Take `Cc1ccccc1CCCCN`: the cytotoxicity call was “inactive”.

As for `C[C@@H]1CN([C@@H](C)CO)C(=O)c2c(c3ccccc3n2C)-c2ccccc2CO[C@@H]1CN(C)C(=O)Nc1cccc(F)c1`, the cytotoxicity call was “inactive”.

Turning to `C[C@@H]1CCCCO[C@H](CN(C)S(=O)(=O)c2ccc(F)cc2)[C@@H](C)CN([C@@H](C)CO)C(=O)c2cc(NS(C)(=O)=O)ccc2O1`, the cytotoxicity call is “inactive”.

For the compound `COc1ccc(CN(C)C[C@@H]2OCCCC[C@H](C)Oc3ccc(NS(=O)(=O)c4ccc(F)cc4)cc3C(=O)N([C@@H](C)CO)C[C@@H]2C)cc1`, the cytotoxicity call is “inactive”.

Turning to `Cc1ccc(S(=O)(=O)Nc2ccc3c(c2)C(=O)N([C@H](C)CO)C[C@@H](C)[C@H](CN(C)Cc2ccc4c(c2)OCO4)OCCCC[C@H](C)O3)cc1`, the cytotoxicity call was “active”.

In the case of `C[C@@H]1CN([C@H](C)CO)C(=O)c2cc(NC(=O)CCCN(C)C)ccc2O[C@H]1CN(C)Cc1ccccc1`, the cytotoxicity call was “inactive”.

Regarding `CCCCCCCCCCCCCCCCOCCCOP(=O)(O)CO[C@H](CO)Cn1ccc(N)nc1=O`, the cytotoxicity call was “inactive”.

Turning to `COCCCOc1cc(CC(CC(N)C(O)CC(C(=O)NCC(C)(C)C(N)=O)C(C)C)C(C)C)ccc1OC.O=C(O)C=CC(=O)O` (stereo not given), the cytotoxicity call was “inactive”.

Turning to `C[C@@H]1CN([C@H](C)CO)C(=O)Cc2cc(NS(=O)(=O)c3cccs3)ccc2O[C@@H]1CN(C)C(=O)Nc1cccc2ccccc12`, the cytotoxicity call was “inactive”.

Take `CCOc1nn(CC)cc1C(=O)O`: the cytotoxicity call was “inactive”.

Take `COc1ccc(S(=O)(=O)Nc2ccc3c(c2)C(=O)N([C@H](C)CO)C[C@@H](C)[C@@H](CN(C)C(=O)Nc2cccc4ccccc24)O3)cc1`: the cytotoxicity call was “inactive”.

As to `COc1ccccc1-c1ccc2c(c1)O[C@@H](CN(C)S(=O)(=O)c1ccccc1)[C@@H](C)CN([C@@H](C)CO)S2(=O)=O`, the cytotoxicity call was “inactive”.

As to `C[C@@H]1CN([C@@H](C)CO)C(=O)Cc2cc(NS(C)(=O)=O)ccc2O[C@H]1CN(C)C(=O)Nc1ccc(C(F)(F)F)cc1`, the cytotoxicity call was “inactive”.

Regarding `CNCCCN1c2ccccc2CCc2ccccc21.Cl`, the cytotoxicity call was “active”.

For the compound `C[C@@H]1CN([C@H](C)CO)C(=O)c2cccc(NS(=O)(=O)c3cn(C)cn3)c2O[C@H]1CN(C)C(=O)NC1CCCCC1`, the cytotoxicity call is “inactive”.

`C[C@@H]1CCCCO[C@@H](CN(C)S(=O)(=O)c2ccc(Cl)cc2)[C@@H](C)CN([C@@H](C)CO)C(=O)c2cc(NC(=O)Nc3cccc4ccccc34)ccc2O1`: the cytotoxicity call is “active”.

Consider `COc1cccc(S(=O)(=O)Nc2ccc3c(c2)OC[C@H](C)N(C(=O)Cc2cccnc2)C[C@@H](C)[C@@H](OC)CN(C)C3=O)c1`, for which the cytotoxicity call is “inactive”.

For the compound `COCCNC(=O)C[C@@H]1C[C@H]2c3cc(NC(=O)CN(C)C)ccc3O[C@H]2[C@H](CO)O1`, the cytotoxicity call was “inactive”.

For `C[C@@H]1CN([C@H](C)CO)C(=O)c2cc(C#Cc3ccccc3F)cnc2O[C@@H]1CN(C)S(=O)(=O)c1ccccc1`, the cytotoxicity call was “inactive”.

For the compound `C[C@H]1CN([C@@H](C)CO)C(=O)c2cc(NC(=O)Nc3ccc(C(F)(F)F)cc3)ccc2O[C@H]1CN(C)Cc1ccc(-c2ccccc2)cc1`, the cytotoxicity call was “active”.

Consider `C[C@@H]1CN([C@H](C)CO)S(=O)(=O)c2ccc(Br)cc2O[C@@H]1CN(C)C(=O)NC1CCCC1`, for which the cytotoxicity call was “inactive”.
